From the supplement of paper PMC6609913
Where a name gives a salt, the structure may show the parent alone. ± gives the standard deviation of the averaged measurements. Whole data set: some 1,300 compounds, median “normalised cell viability” near 1, cut for the lowest 2% near 0.15. This is one part of the list.

Tested on: V-C8 + BRCA2 (BRCA2-proficient hamster cells)
Experiment: normalised cell viability (fraction of plate median); higher = more viable cells (less toxic)
Conditions: 5 µM
Outline: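 Library drugs, held as 10 mM stocks in DMSO, were diluted to 5 μM in 100 μl medium and added to 96-well plates of V-C8 hamster cells, either lacking BRCA2 or with BRCA2 restored, 24 h after seeding. Plates ran for 3 days (screen 1) or 6 days (screen 2), alongside solvent-only wells. Viability came from a resazurin readout, median-plate normalised, as the mean of triplicate wells.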

Row | Structure (SMILES) | normalised cell viability (treatment time: 3 days) | normalised cell viability (treatment time: 6 days)
1 | Cn1c(=O)c2c(ncn2C)n(C)c1=O [Caffeine] | 0.998 ± 0.053 | 0.996 ± 0.057
2 | CC(C)(C)NCC(O)c1ccc(O)c(CO)c1 (stereo unspecified) [Salbutamol] | 1.07 ± 0.035 | 1.09 ± 0.076
3 | O=C(O[C@@H]1C[C@@H]2C[C@H]3C[C@H](C1)N2CC3=O)c1c[nH]c2ccccc12 [Dolasetron mesilate] | 1.06 ± 0.19 | 1.02 ± 0.03
4 | CC(C)(C)NC(=O)[C@@H]1CN(Cc2cccnc2)CCN1C[C@@H](O)C[C@@H](Cc1ccccc1)C(=O)N[C@H]1c2ccccc2C[C@H]1O [Indinavir sulfate] | 1.009 ± 0.0049 | 1.03 ± 0.066
5 | COC(=O)Nc1nc2cc(C(=O)c3ccc(F)cc3)ccc2[nH]1 [Flubendazol] | 0.168 ± 0.017 | 0.167 ± 0.0085
6 | O=C(NCC1CCCCN1)c1cc(OCC(F)(F)F)ccc1OCC(F)(F)F (stereo unspecified) [Flecainide acetate] | 1.12 ± 0.066 | 1.02 ± 0.12
7 | CC1CCc2cc(F)cc3c(=O)c(C(=O)O)cn1c23 (stereo unspecified) [Flumequine] | 1.03 ± 0.022 | 1.049 ± 0.0068
8 | CCCCOc1ccc(OCCCN2CCOCC2)cc1 [Pramoxine hydrochloride] | 1.09 ± 0.025 | 1.06 ± 0.069
9 | CC(C)[C@H]1CC[C@H](C(=O)N[C@H](Cc2ccccc2)C(=O)O)CC1 [Nateglinide] | 1.04 ± 0.051 | 1.04 ± 0.091
10 | CC(C)c1nc(CN(C)C(=O)N[C@H](C(=O)N[C@@H](Cc2ccccc2)C[C@H](O)[C@H](Cc2ccccc2)NC(=O)OCc2cncs2)C(C)C)cs1 [Ritonavir] | 1.01 ± 0.048 | 0.96 ± 0.049
11 | COc1ccccc1OCCNCC(O)COc1cccc2[nH]c3ccccc3c12 (stereo unspecified) [Carvedilol] | 0.815 ± 0.045 | 0.887 ± 0.065
12 | COc1cc(N)c(Cl)cc1C(=O)NC1CCN(Cc2ccccc2)CC1 [Clebopride maleate] | 1 ± 0.027 | 1.06 ± 0.052
13 | Nc1nc(N)nc(-c2cc(Cl)ccc2Cl)n1 [Irsogladine maleate] | 0.254 ± 0.065 | 0.2 ± 0.015
14 | CCN1CCCC1CNC(=O)c1cc(S(=O)(=O)CC)c(N)cc1OC (stereo unspecified) [Amisulpride] | 0.974 ± 0.017 | 0.991 ± 0.058
15 | CC(CN1c2ccccc2Sc2ccccc21)N(C)C (stereo unspecified) [Promethazine hydrochloride] | 0.926 ± 0.19 | 0.949 ± 0.043
16 | NS(=O)(=O)c1cc2c(cc1C(F)(F)F)NC(Cc1ccccc1)NS2(=O)=O (stereo unspecified) [Bendroflumethiazide] | 0.992 ± 0.096 | 1.03 ± 0.032
17 | O=C(c1ccc(OCCN2CCCCC2)cc1)c1c(-c2ccc(O)cc2)sc2cc(O)ccc12 [Raloxifene hydrochloride] | 0.81 ± 0.027 | 0.958 ± 0.092
18 | CCn1cc(C(=O)O)c(=O)c2cc(F)c(N3CCNCC3)cc21 [Norfloxacin] | 1.05 ± 0.042 | 1.06 ± 0.044
19 | CCOC(=O)C1=C(C)NC(C)=C(C(=O)OC)C1c1cccc([N+](=O)[O-])c1 (stereo unspecified) [Nitrendipine] | 1.01 ± 0.0043 | 1.05 ± 0.017
20 | CC1=C(C(=O)O)N2C(=O)[C@@H](NC(=O)[C@H](N)c3ccc(O)cc3)[C@H]2SC1 [Cefadroxil] | 1.07 ± 0.014 | 1.12 ± 0.066
21 | C=CCN1CCCC1CNC(=O)c1cc2nn[nH]c2cc1OC (stereo unspecified) [Alizapride HCl] | 1.018 ± 0.0094 | 1.08 ± 0.05
22 | CC(C)(Oc1ccc(C2CC2(Cl)Cl)cc1)C(=O)O (stereo unspecified) [Ciprofibrate] | 1.02 ± 0.024 | 1 ± 0.057
23 | CCC(C)(CN(C)C)OC(=O)c1ccccc1 (stereo unspecified) [Amyleine hydrochloride] | 1.03 ± 0.046 | 0.997 ± 0.019

Row | Structure (SMILES) | normalised cell viability (treatment time: 3 days) | normalised cell viability (treatment time: 6 days)
24 | CC(=C(CCO)SSCC1CCCO1)N(C=O)Cc1cnc(C)nc1N (stereo in doubt) [Fursultiamine Hydrochloride] | 0.998 ± 0.013 | 1.07 ± 0.031
25 | C=C(NC(=O)C(=C)NC(=O)c1csc(C2=N[C@@H]3c4csc(n4)[C@H]4NC(=O)c5csc(n5)[C@H]([C@](C)(O)[C@@H](C)O)NC(=O)[C@H]5CSC(=N5)/C(=C/C)NC(=O)[C@H]([C@@H](C)O)NC(=O)c5csc(n5)[C@]3(CC2)NC(=O)[C@H](C)NC(=O)C(=C)NC(=O)[C@H](C)NC(=O)[C@H]([C@@H](C)CC)N[C@@H]2C=Cc3c([C@H](C)O)cc(nc3[C@H]2O)C(=O)O[C@@H]4C)n1)C(N)=O [Thiostrepton] | 0.135 ± 0.0082 | 0.126 ± 0.013
26 | Cn1c(=O)c2c(ncn2CC(O)CO)n(C)c1=O (stereo unspecified) [Diprophylline] | 1.06 ± 0.053 | 1.01 ± 0.061
27 | NC(=O)c1cccnc1 [Nicotinamide] | 0.943 ± 0.029 | 1.1 ± 0.025
28 | CNC1(C)C2CCC(C2)C1(C)C (stereo unspecified) [Mecamylamine hydrochloride] | 0.885 ± 0.054 | 0.946 ± 0.072
29 | CCC(C)(C)c1ccc(CC(C)CN2C[C@@H](C)O[C@@H](C)C2)cc1 (stereo partly specified) [Amorolfine hydrochloride] | 0.981 ± 0.028 | 1.08 ± 0.076
30 | CC[C@]12CCCN3CCc4c(n(c5ccccc45)[C@@](O)(C(=O)OC)C1)[C@@H]32 [Vincamine] | 1.09 ± 0.059 | 1.03 ± 0.041
31 | Nc1ccc(S(N)(=O)=O)cc1 [Sulfanilamide] | 0.997 ± 0.042 | 0.9 ± 0.092
32 | CNCC[C@@H](Oc1cccc2ccccc12)c1cccs1 [(R)-Duloxetine hydrochloride] | 0.882 ± 0.015 | 0.935 ± 0.1
33 | CC(CCc1ccc(O)cc1)NCCc1ccc(O)c(O)c1 (stereo unspecified) [Dobutamine hydrochloride] | 1.05 ± 0.053 | 0.953 ± 0.022
34 | CCSc1ccc2c(c1)N(CCCN1CCN(C)CC1)c1ccccc1S2 [Thiethylperazine dimalate] | 0.942 ± 0.079 | 0.958 ± 0.028
35 | Cc1c(O)cccc1C(=O)N[C@@H](CSc1ccccc1)[C@H](O)CN1C[C@H]2CCCC[C@H]2C[C@H]1C(=O)NC(C)(C)C [Nelfinavir mesylate] | 0.845 ± 0.052 | 0.909 ± 0.074
36 | CN(C)CCC(c1ccccc1)c1ccccn1 (stereo unspecified) [Pheniramine maleate] | 1.02 ± 0.05 | 0.987 ± 0.031
37 | C=CCc1ccccc1OCC(O)CNC(C)C (stereo unspecified) [Alprenolol hydrochloride] | 1 ± 0.063 | 0.926 ± 0.056
38 | NC[C@H]1CC[C@H](C(=O)O)CC1 [Tranexamic acid] | 1.047 ± 0.0045 | 0.993 ± 0.025
39 | CCCCOc1ccc(CC(=O)NO)cc1 [Bufexamac] | 0.921 ± 0.016 | 0.864 ± 0.04
40 | CC(=O)OC(C)C[N+](C)(C)C (stereo unspecified) [Methacholine chloride] | 1.11 ± 0.036 | 0.9867 ± 0.0014
41 | Cc1ccc(O)c([C@H](CCN(C(C)C)C(C)C)c2ccccc2)c1 [Tolterodine tartrate] | 1.05 ± 0.062 | 0.965 ± 0.053
42 | O=C(O)c1cc(=O)c2c(OCC(O)COc3cccc4oc(C(=O)O)cc(=O)c34)cccc2o1 [Cromolyn disodium salt] | 1.01 ± 0.02 | 1.03 ± 0.034
43 | Clc1ccc(COC(Cn2ccnc2)c2ccc(Cl)cc2Cl)cc1 (stereo unspecified) [Econazole nitrate] | 1 ± 0.025 | 1.04 ± 0.049
44 | Clc1ccccc1C(c1ccccc1)(c1ccccc1)n1ccnc1 [Clotrimazole] | 0.646 ± 0.029 | 0.75 ± 0.069
45 | C=CC[N@@+]12CC[C@@]34c5ccccc5N5/C=C6/[C@H]7C[C@H]8[C@@]9(CC[N@@+]8(CC=C)C/C7=C/CO)c7ccccc7N(/C=C(/[C@@H](C[C@@H]31)/C(=C\CO)C2)[C@H]54)[C@@H]69 [Alcuronium chloride] | 1.03 ± 0.023 | 1 ± 0.09
46 | CCCC(C(=O)OCCN(CC)CC)(c1ccccc1)c1ccccc1 [Proadifen hydrochloride] | 0.919 ± 0.024 | 0.908 ± 0.052

Row | Structure (SMILES) | normalised cell viability (treatment time: 3 days) | normalised cell viability (treatment time: 6 days)
47 | O=P(O)(O)C(O)(Cc1cccnc1)P(=O)(O)O [Risedronic acid monohydrate] | 1.06 ± 0.022 | 1.01 ± 0.059
48 | CCN(CC)C(=O)N1CCN(C)CC1 [Diethylcarbamazine citrate] | 1.08 ± 0.045 | 1.08 ± 0.048
49 | CCN(CCCc1ccccc1)CCCc1ccccc1 [Alverine citrate salt] | 0.97 ± 0.072 | 0.968 ± 0.024
50 | CC(C)C(=O)c1c(C(C)C)nn2ccccc12 [Ibudilast] | 0.987 ± 0.062 | 0.981 ± 0.061
51 | CC(C)NCC(O)COc1cccc2[nH]ccc12 (stereo unspecified) [Pindolol] | 0.918 ± 0.051 | 1.02 ± 0.029
52 | OC(CCN1CCCC1)(c1ccccc1)C1CCCCC1 (stereo unspecified) [Procyclidine hydrochloride] | 0.981 ± 0.047 | 0.987 ± 0.012
53 | CC(CN(C)C)CN1c2ccccc2CCc2ccccc21 (stereo unspecified) [Trimipramine maleate salt] | 1.05 ± 0.052 | 0.979 ± 0.046
54 | CCCCOc1ccc(C(=O)CCN2CCCCC2)cc1 [Dyclonine hydrochloride] | 0.962 ± 0.018 | 1.06 ± 0.1
55 | C=C1C(=O)O[C@H]2[C@H]1CC/C(C)=C/CC[C@@]1(C)O[C@@H]21 [Parthenolide] | 0.171 ± 0.0068 | 0.292 ± 0.096
56 | Cn1nnc2c(C(N)=O)ncn2c1=O [Temozolomide] | 1.06 ± 0.022 | 0.926 ± 0.086
57 | CC(C)(C)NC(=O)[C@H]1CC[C@H]2[C@@H]3CC[C@H]4NC(=O)C=C[C@]4(C)[C@H]3CC[C@]12C [Finasteride] | 0.918 ± 0.052 | 0.983 ± 0.06
58 | Nc1nc(N)c2nc(-c3ccccc3)c(N)nc2n1 [Triamterene] | 0.938 ± 0.015 | 0.794 ± 0.02
59 | CC[C@H](c1ccc(O)cc1)[C@@H](CC)c1ccc(O)cc1 [Hexestrol] | 0.9735 ± 0.0097 | 0.944 ± 0.19
60 | Cc1c(Nc2ncccc2C(=O)O)cccc1C(F)(F)F [Flunixin meglumine] | 1.03 ± 0.033 | 1.01 ± 0.067
61 | CN(Cc1cc(Br)cc(Br)c1N)C1CCCCC1 [Bromhexine hydrochloride] | 0.949 ± 0.042 | 1.02 ± 0.072
62 | C[C@H](CS)C(=O)N1CCC[C@H]1C(=O)O [Captopril] | 0.973 ± 0.025 | 1.01 ± 0.048
63 | CC1(C)O[C@@H]2C[C@H]3[C@@H]4C[C@H](F)C5=CC(=O)C=C[C@]5(C)[C@H]4[C@@H](O)C[C@]3(C)[C@]2(C(=O)CO)O1 [Flunisolide] | 1.03 ± 0.067 | 1.07 ± 0.073
64 | NCCc1ccc(O)c(O)c1 [Dopamine hydrochloride] | 1.01 ± 0.027 | 1 ± 0.041
65 | CCN1CCCC1CNC(=O)c1cc(S(N)(=O)=O)ccc1OC (stereo unspecified) [Sulpiride] | 1.13 ± 0.028 | 1.02 ± 0.02
66 | COc1ccc(-c2ccc3cc(C(=O)O)ccc3c2)cc1C12CC3CC(CC(C3)C1)C2 [Adapalene] | 0.313 ± 0.0073 | 0.441 ± 0.011
67 | O=C(O)c1cccnc1 [Niacin] | 1.07 ± 0.21 | 1.01 ± 0.013
68 | CCCCc1oc2ccccc2c1C(=O)c1cc(I)c(OCCN(CC)CC)c(I)c1 [Amiodarone hydrochloride] | 0.729 ± 0.057 | 0.753 ± 0.047
